The values below come from publication PMC4336329 (PLoS ONE, 2015).

Hit rate of the full screen: of about 310,000 compounds, about 2,200 (0.71%) showed an effect of 50% or more. Effects have a minus sign here. Some of the results follow.

The target in the assay is human ether-à-go-go-related gene (hERG) potassium channel (human, UniProt Q12809). The experiment in a line: primary screen, population patch clamp on CHO cells stably expressing hERG.
Chain of human ether-à-go-go-related gene (hERG) potassium channel (Q12809 whole entry, looked up): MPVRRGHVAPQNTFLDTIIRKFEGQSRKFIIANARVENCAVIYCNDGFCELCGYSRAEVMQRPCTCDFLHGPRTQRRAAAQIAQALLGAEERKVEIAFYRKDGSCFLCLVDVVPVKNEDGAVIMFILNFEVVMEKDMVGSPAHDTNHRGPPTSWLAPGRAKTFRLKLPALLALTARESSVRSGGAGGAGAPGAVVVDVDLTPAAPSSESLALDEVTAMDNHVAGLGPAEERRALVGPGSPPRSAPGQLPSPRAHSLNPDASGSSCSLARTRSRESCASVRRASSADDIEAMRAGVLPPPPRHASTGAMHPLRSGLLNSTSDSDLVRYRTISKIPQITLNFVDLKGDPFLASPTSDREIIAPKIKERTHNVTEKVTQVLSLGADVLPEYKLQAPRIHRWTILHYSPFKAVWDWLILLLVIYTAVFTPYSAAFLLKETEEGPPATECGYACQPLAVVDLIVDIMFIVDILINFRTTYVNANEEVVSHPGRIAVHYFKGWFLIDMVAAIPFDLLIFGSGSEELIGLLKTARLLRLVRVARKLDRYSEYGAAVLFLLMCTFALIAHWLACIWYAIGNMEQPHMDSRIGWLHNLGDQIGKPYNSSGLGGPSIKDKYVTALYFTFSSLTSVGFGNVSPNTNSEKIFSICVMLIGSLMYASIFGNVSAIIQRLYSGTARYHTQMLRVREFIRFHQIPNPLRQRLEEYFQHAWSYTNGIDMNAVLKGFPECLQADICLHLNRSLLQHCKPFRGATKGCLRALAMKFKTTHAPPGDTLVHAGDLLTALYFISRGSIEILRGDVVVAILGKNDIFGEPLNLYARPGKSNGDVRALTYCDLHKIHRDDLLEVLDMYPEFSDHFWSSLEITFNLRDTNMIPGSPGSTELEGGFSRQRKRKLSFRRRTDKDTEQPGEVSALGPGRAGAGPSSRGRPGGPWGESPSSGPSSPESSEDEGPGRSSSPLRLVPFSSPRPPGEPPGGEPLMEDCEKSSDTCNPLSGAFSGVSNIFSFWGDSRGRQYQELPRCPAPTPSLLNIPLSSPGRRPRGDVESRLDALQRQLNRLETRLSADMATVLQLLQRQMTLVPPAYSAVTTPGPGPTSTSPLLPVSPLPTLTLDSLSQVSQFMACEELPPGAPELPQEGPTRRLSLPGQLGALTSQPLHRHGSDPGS
Turning to `CCN1CCN(Cc2ccc(NC(=O)c3ccc(C)c(NC(=O)c4cccc(-c5cn[nH]c(=O)c5)c4)c3)cc2C(F)(F)F)CC1.O=C(O)C(F)(F)F`, the “hERG current change (%, negative = inhibition) at 1uM” value was found to be 12.5%.
`CN(C)C(/C=C/Nc1ccc(C#N)cc1)=C(C#N)C#N`: the “hERG current change (%, negative = inhibition) at 1uM” value is 6.76%.
In the case of `O=CN1CCN(C(=S)Nc2ccc(OC(F)F)cc2)CC1`, the “hERG current change (%, negative = inhibition) at 1uM” value is given as 2.33%.
As for `COc1cc(OC)c(C2C(C(=O)O)c3ccccc3C(=O)N2C)cc1OC` (centres unmarked), the “hERG current change (%, negative = inhibition) at 1uM” value was determined as 10.5%.
Under `O=c1cc(CO)oc(CN2CCN(Cc3ccccc3)CC2)c1O` stands 8.83%.
Under `Cc1nc2ccccc2n1C1CC(=O)N(N(C)C)C1=O` (centres unmarked) stands 11.9%.
For `Cc1cc(Cl)ccc1OCCn1cncn1`, the “hERG current change (%, negative = inhibition) at 1uM” value is given as -4.7%.
The same measure for `CC(C)Sc1nnc([C@@H](N)Cc2ccccc2)o1.Cl`: 6.97%; for `CCn1cc(CNC(=O)c2cccc([N+](=O)[O-])c2)cn1`: 9.63%; for `O=C(NCCc1ccco1)C(=O)NCC1CCCN1S(=O)(=O)c1ccccc1` (centres unmarked): 3.3%.
Under `O=C(Nc1ccc(Br)cc1)N1CCc2ccccc2C1` stands 18%; under `Cc1ccc(S(=O)(=O)c2nc(C)c3c(n2)CCC3)cc1`, 7.89%.
Under `OCC(O)CN(c1ccccc1)c1ccccc1` (centres unmarked) stands 4.9%.
For `O=C1/C(=C/c2cccnc2)Cc2ccc(Cl)cc21`, the “hERG current change (%, negative = inhibition) at 1uM” value is 3.47%.
The same measure for `Cc1ccc(C(C[N+](=O)[O-])Sc2ccc(N)cc2)cc1` (centres unmarked): 5.03%; for `CSc1ccc(Cl)c(C(=O)Nc2ccc(N3CCOCC3)cc2)c1`: -0.184%.
The same measure for `COc1ccc(CNCCc2c[nH]c3ccccc23)c(OC)c1C.O=C(O)C(=O)O`: -11.7%.
The same measure for `c1c(C2CCCCC2)n[nH]c1CN1CCCCC1`: -14.2%; for `Cl.c1ccc(COC(CN2CCCCCC2)CN2CCCCCC2)cc1`: 2.72%.
With `Cc1ccccc1CNC(=O)CCCn1ncn2c(cc3occc32)c1=O`, the “hERG current change (%, negative = inhibition) at 1uM” value is 13.7%.
`O=C(Nc1nnc(-c2ccccc2F)s1)C1CCCO1` (centres unmarked): the “hERG current change (%, negative = inhibition) at 1uM” value is -0.0951%.
Turning to `COc1cccc(/C=C/C(=C2/C(=O)N(c3ccccc3)N=C2C)c2ccccc2)c1OC`, the “hERG current change (%, negative = inhibition) at 1uM” value is -0.438%.
Turning to `CN(CCC#N)CC(=O)Nc1ccc(NC(=O)CN(C)CCC#N)cc1`, the “hERG current change (%, negative = inhibition) at 1uM” value was 4.5%.
Take `COCCn1cnc2c1c(=O)n(Cc1ccccc1C#N)c(=O)n2Cc1ccccc1`: the “hERG current change (%, negative = inhibition) at 1uM” value was 8.74%.
The same measure for `Cc1cccc(C(=O)OC(C)CN2CCOCC2)c1.Cl` (centres unmarked): 7.05%; for `CC(=O)Nc1ccc(NC(=O)CCc2nc3sc4c(c3c(=O)[nH]2)CCCC4)cc1`: 4.95%.
As to `O=C(Nc1cccnc1)Nc1ccccc1Cl`, the “hERG current change (%, negative = inhibition) at 1uM” value amounted to 3.18%.
As for `Cc1ccccc1NC(=O)CSc1ccc2nnc(-c3ccccn3)n2n1`, the “hERG current change (%, negative = inhibition) at 1uM” value came out at 7.85%.
`Cc1nc(C(=O)Nc2ccc(Cl)cc2)sc1C1(C)CC(c2ccccc2)=NO1` (centres unmarked): the “hERG current change (%, negative = inhibition) at 1uM” value was 7.26%.
The same measure for `O=C(COc1ccccc1Cc1ccccc1)Nc1cccnc1`: -2.54%.
As for `O=C(O)c1ccccc1C(=O)Nc1ccc(S(=O)(=O)N2CCCC2)cc1`, the “hERG current change (%, negative = inhibition) at 1uM” value came to 15.4%.
In the case of `Cc1ccc(OCc2cc(C(=O)NC3CCCCC3)no2)cn1`, the “hERG current change (%, negative = inhibition) at 1uM” value worked out at 16.8%.
With `CCOC(=O)CSc1nc2sc3c(c2c(=O)n1-c1ccc(C)cc1)CCN(C)C3`, the “hERG current change (%, negative = inhibition) at 1uM” value came out at 8.97%.
Consider `CCc1cc(S(N)(=O)=O)cc(CC)c1NC(C)=O`, for which the “hERG current change (%, negative = inhibition) at 1uM” value worked out at 10.4%.
The same measure for `CC1Cc2ccccc2N1C(=O)COC(=O)/C=C/c1cccc(F)c1` (centres unmarked): 7.2%; for `CC1=C(C(=O)OCc2ccccc2)C(c2cccc([N+](=O)[O-])c2)NC(=O)N1CCCCCC(=O)O` (centres unmarked): 12.8%; for `CNC(=S)NNC(=O)Cc1ccc(O)cc1`: 3.47%.
The same measure for `COc1ccc(-c2c(C)c3ccc(O)cc3oc2=O)cc1`: 25.8%; for `CC(C)C(=O)NNC(=O)CC(=O)Nc1ccccc1C(=O)O`: 5.62%; for `O=C(/C=C/c1ccco1)NC(=S)Nc1ccccn1`: 0.309%.
Under `COc1ccc(S(=O)(=O)NC(N)=NCCc2ccccc2)cc1` stands 4.07%; under `Cc1cc(C)n(C(=O)c2sc3cc(F)ccc3c2Cl)n1`, 3.96%; under `CCN(CC)CCNC(=O)c1cc2c(-c3cccc(OC)c3)nn(C)c2s1`, 9.13%.
Regarding `CC#CCCCC(=O)Nc1ccc(C(=O)O)cc1`, the “hERG current change (%, negative = inhibition) at 1uM” value was 4.55%.
In the case of `Cc1cc(NC(=O)CN2C(=O)NC3(CCCCCC3)C2=O)ccc1Br`, the “hERG current change (%, negative = inhibition) at 1uM” value is 8.47%.
Regarding `CCCCOc1ccc(C(=O)NCc2ccco2)cc1`, the “hERG current change (%, negative = inhibition) at 1uM” value was 12%.
The same measure for `N#Cc1nc(COc2ccc(Br)cc2)oc1NCCCn1ccnc1`: -29%; for `CC1CCCCC1NC(=O)c1cc2ccccc2o1` (centres unmarked): 0.12%; for `COCCCN=CC1=C(O)CC(C)(C)CC1=O`: -6.98%.
The same measure for `Fc1ccc(Br)cc1C1C=C(c2cccnc2)Nc2ncnn21` (centres unmarked): 1.69%; for `O=C1CC2(CCCCC2)Oc2ccc(OCC(=O)N3CCOCC3)cc21`: 9.23%; for `CCc1ccc(NC(=O)CSc2nnc(-c3ccco3)o2)cc1`: 9.08%.
On to `CC(OC(=O)c1cccc(Cl)c1)C(=O)NC1CCCCC1C` (centres unmarked), for which the “hERG current change (%, negative = inhibition) at 1uM” value stood at 5.38%.
Under `CCC(c1nnnn1Cc1ccc2c(c1)OCO2)N1CCN(CC)CC1.Cl` (centres unmarked) stands 2.65%.
Consider `Nc1c(C(=O)Nc2ccc3c(c2)OCCO3)nnn1Cc1ccccc1Cl`, for which the “hERG current change (%, negative = inhibition) at 1uM” value is reported as 1.06%.
As to `COc1ccc(C(CC(=O)O)NC(=O)OC(C)(C)C)cc1` (centres unmarked), the “hERG current change (%, negative = inhibition) at 1uM” value was 16.7%.
With `CC1(C)CC(=O)C(/C=N/c2ccccn2)=C(O)C1`, the “hERG current change (%, negative = inhibition) at 1uM” value came to 7.35%.
The same measure for `C/C(=N\Nc1nccnc1Cl)c1ccc(F)cc1`: 3.43%.
Under `COc1ccc(OC)c(NC(=O)c2ccc3c(c2)OCO3)c1` stands 15.4%; under `N#CCCN(C(=O)COC(=O)c1cc(S(=O)(=O)N2CCOCC2)ccc1Cl)c1ccc(F)cc1`, -4.53%.
As for `CCCOc1cccc(C2C(C(=O)c3cccs3)=C(O)C(=O)N2Cc2cccnc2)c1` (centres unmarked), the “hERG current change (%, negative = inhibition) at 1uM” value was determined as 6.6%.
Regarding `CCOCCCNC(=O)CN1C(=O)/C(=C/c2ccccc2)Sc2ccccc21`, the “hERG current change (%, negative = inhibition) at 1uM” value was 5.17%.
The same measure for `COc1cccc2[nH]c(C(=O)NCCCN3CCCC3=O)cc12`: -17.1%; for `Cc1cc(C)nc(Nc2ncc(O)n2-c2ccc(C)c(C)c2)n1`: 13.2%.
The same measure for `CCOC(=O)C1CCN(C(=O)c2cccc(Cl)c2)CC1`: 0.863%.
The same measure for `COC(=O)c1ccc(C(=O)OC)c(NC(=S)N2CCN(c3cc(Cl)ccc3C)CC2)c1`: 3.63%.
As for `O=C(COc1ccc(Cl)cc1Br)N1CCN(c2ccccc2)CC1`, the “hERG current change (%, negative = inhibition) at 1uM” value amounted to 4.15%.
The same measure for `COc1cccc(CNC(=O)c2cccnc2Sc2ccc(C)cc2C)c1`: 6.77%; for `CCOc1ccc(OCc2ccc(C(=O)Nc3cccnc3)o2)cc1`: -5.38%.
Under `CCc1ccc(C(C)NC(=O)c2ccc(F)cc2)cc1` (centres unmarked) stands 5.79%; under `CCc1ccc(C(C(=O)NCc2ccc(F)cc2)N(C(=O)c2csnn2)C2CC2)cc1` (centres unmarked), 4.8%; under `COc1cccc2cc(C(C)N(CCCN3CCOCC3)C(=S)Nc3c(C)cccc3C)oc12` (centres unmarked), 1.44%.
Under `CSCC[C@H](NC(=O)C1CCN(C(=O)[C@H](Cc2ccccc2)NS(=O)(=O)c2ccc(C)cc2)CC1)C(=O)O` stands 8.25%; under `COc1cccc(C(=O)Nc2ccc3[nH]ncc3c2)c1OC`, 5.29%.
For `O=C1CCC(C(=O)N2CCCC2)CN1CCc1cccc(F)c1` (centres unmarked), the “hERG current change (%, negative = inhibition) at 1uM” value is 7.17%.
Under `CCOC(=O)C1=C(C)NC(=S)NC1c1cc(C)sc1C` (centres unmarked) stands 14%; under `O=C(O)COc1cccc2nsnc12`, 6.88%; under `CC1(c2ccc3c(c2)OCCO3)NC(=O)N(CC(=O)Nc2ccccc2)C1=O` (centres unmarked), 8.36%.
Under `CC(=O)c1cccc(N(CC(=O)NCC2CCCO2)C(=O)CCC(=O)Nc2cc(C)on2)c1` (centres unmarked) stands 9.35%; under `CCOC(=O)Cn1c2ccc(C)cc2c2nc(C)sc21`, 7.65%.
The same measure for `CCCCn1c(N)c(N(CC(C)C)C(=O)CSCC(=O)Nc2cccc(C)c2)c(=O)[nH]c1=O`: 2.34%; for `COc1ccc(C(=O)/C(=C\c2ccco2)N2C=CC=CC2=C(C#N)C#N)cc1`: -13%.
As to `c1ccn(-c2ccc(-c3ccn[nH]3)cc2)c1`, the “hERG current change (%, negative = inhibition) at 1uM” value came out at 13.6%.
The same measure for `COc1cc(OC)c2c(N)c(C#N)c(C(F)(F)C(F)(F)F)nc2c1`: 3.29%.
Under `CCN(CC(=O)Nc1c(F)cccc1F)C(=O)/C=C/c1ccc(C)cc1` stands 9.41%; under `O=C(N/C(=C/c1ccco1)C(=O)N1CCOCC1)c1ccccc1Br`, 11.5%; under `O=C(CCn1c(=O)c2cccn2c2ccc(F)cc21)NCCc1ccccc1`, 18.4%.
On to `COc1ccc(C2CC(=O)N3CN(c4ccccc4F)CSC3=C2C#N)cc1OC` (centres unmarked), for which the “hERG current change (%, negative = inhibition) at 1uM” value was 18.6%.
Under `CC(C)Sc1nc2c(c(=O)[nH]c(=O)n2C)n1CCc1ccccc1` stands -2.44%; under `CCOC(=O)c1nnc(-c2cccs2)nc1Oc1ccccc1C(=O)OC`, 14.4%; under `S=c1[nH]c(-c2ccc(Cl)cc2)cs1`, 16.2%.
Consider `CC(C)C(OC(=O)c1ccco1)C(=O)NC1CCCC1` (centres unmarked), for which the “hERG current change (%, negative = inhibition) at 1uM” value was found to be 10.7%.
